The other results are listed elsewhere or left out.
Experiments:
Experiment in all cases: glycan array binding signal (z-score within array); higher = stronger binding
Details in all cases: glycan notation: IUPAC condensed, linker removed
[1] = biological target: Fuc(a1-2)Gal6S(b1-3)GlcNAc6S
Procedure, shortened: (§1)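 Glycan array data came from 3228 arrays in the Consortium for Functional Glycomics database, and only arrays with an available protein sequence were kept. Glycan names were put into IUPAC-condensed notation, and columns mapping to the same glycan were averaged. The binding signal is a within-array Z-score, averaged across arrays of one protein sequence run at different concentrations or buffers and across linkers. A negative Z-score can be read as non-binding.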

[2] = biological target: Fuc(a1-2)Gal6S(b1-4)Glc
Procedure, shortened: as §1

[3] = biological target: Fuc(a1-2)Gal6S(b1-4)Glc6S
Procedure, shortened: as §1

[4] = biological target: Fuc(a1-2)[Gal(a1-3)]Gal
Procedure, shortened: as §1

[5] = biological target: Fuc(a1-2)[Gal(a1-3)]Gal(b1-3)GalNAc
Procedure, shortened: as §1

[6] = biological target: Fuc(a1-2)[Gal(a1-3)]Gal(b1-3)GalNAc(b1-3)Gal(a1-4)Gal(b1-4)Glc
Procedure, shortened: as §1

[7] = biological target: Fuc(a1-2)[Gal(a1-3)]Gal(b1-3)GlcNAc
Procedure, shortened: as §1

[8] = biological target: Fuc(a1-2)[Gal(a1-3)]Gal(b1-3)GlcNAc(b1-2)Man(a1-3)[Fuc(a1-2)[Gal(a1-3)]Gal(b1-3)GlcNAc(b1-2)Man(a1-6)]Man(b1-4)GlcNAc(b1-4)GlcNAc
Procedure, shortened: as §1

[9] = biological target: Fuc(a1-2)[Gal(a1-3)]Gal(b1-3)GlcNAc(b1-2)Man(a1-3)[Fuc(a1-2)[Gal(a1-3)]Gal(b1-3)GlcNAc(b1-2)Man(a1-6)]Man(b1-4)GlcNAc(b1-4)[Fuc(a1-6)]GlcNAc
Procedure, shortened: as §1

[10] = biological target: Fuc(a1-2)[Gal(a1-3)]Gal(b1-3)GlcNAc(b1-3)GalNAc
Procedure, shortened: as §1

[11] = biological target: Fuc(a1-2)[Gal(a1-3)]Gal(b1-3)GlcNAc(b1-6)GalNAc
Procedure, shortened: as §1

[12] = biological target: Fuc(a1-2)[Gal(a1-3)]Gal(b1-4)Glc
Procedure, shortened: as §1

[13] = biological target: Fuc(a1-2)[Gal(a1-3)]Gal(b1-4)GlcNAc
Procedure, shortened: as §1

[14] = biological target: Fuc(a1-2)[Gal(a1-3)]Gal(b1-4)GlcNAc(b1-2)Man
Procedure, shortened: as §1

[15] = biological target: Fuc(a1-2)[Gal(a1-3)]Gal(b1-4)GlcNAc(b1-2)Man(a1-3)[Fuc(a1-2)[Gal(a1-3)]Gal(b1-4)GlcNAc(b1-2)Man(a1-6)]Man(b1-4)GlcNAc(b1-4)GlcNAc
Procedure, shortened: as §1

[16] = biological target: Fuc(a1-2)[Gal(a1-3)]Gal(b1-4)GlcNAc(b1-2)Man(a1-3)[Fuc(a1-2)[Gal(a1-3)]Gal(b1-4)GlcNAc(b1-2)Man(a1-6)]Man(b1-4)GlcNAc(b1-4)[Fuc(a1-6)]GlcNAc
Procedure, shortened: as §1

[17] = biological target: Fuc(a1-2)[Gal(a1-3)]Gal(b1-4)GlcNAc(b1-3)GalNAc
Procedure, shortened: as §1

[18] = biological target: Fuc(a1-2)[Gal(a1-3)]Gal(b1-4)GlcNAc(b1-3)[Fuc(a1-2)[Gal(a1-3)]Gal(b1-4)GlcNAc(b1-6)]GalNAc
Procedure, shortened: as §1

[19] = biological target: Fuc(a1-2)[Gal(a1-3)]Gal(b1-4)GlcNAc(b1-6)GalNAc
Procedure, shortened: as §1

[20] = biological target: Fuc(a1-2)[Gal(a1-3)]Gal(b1-4)[Fuc(a1-3)]Glc
Procedure, shortened: as §1

[21] = biological target: Fuc(a1-2)[Gal(a1-3)]Gal(b1-4)[Fuc(a1-3)]GlcNAc
Procedure, shortened: as §1

[22] = biological target: Fuc(a1-2)[Gal(a1-3)]Gal(b1-4)[Fuc(a1-3)]GlcNAc(b1-3)GalNAc
Procedure, shortened: as §1

[23] = biological target: Fuc(a1-2)[Gal(a1-4)]Gal(b1-4)GlcNAc
Procedure, shortened: as §1

[24] = biological target: Fuc(a1-2)[GalNAc(a1-3)]Gal
Procedure, shortened: as §1

[25] = biological target: Fuc(a1-2)[GalNAc(a1-3)]Gal(b1-3)GalNAc(a1-3)[Fuc(a1-2)]Gal(b1-4)GlcNAc
Procedure, shortened: as §1

[26] = biological target: Fuc(a1-2)[GalNAc(a1-3)]Gal(b1-3)GalNAc(b1-3)Gal(a1-4)Gal(b1-4)Glc
Procedure, shortened: as §1

[27] = biological target: Fuc(a1-2)[GalNAc(a1-3)]Gal(b1-3)GlcNAc
Procedure, shortened: as §1

[28] = biological target: Fuc(a1-2)[GalNAc(a1-3)]Gal(b1-3)GlcNAc(b1-2)Man(a1-3)[Fuc(a1-2)[GalNAc(a1-3)]Gal(b1-3)GlcNAc(b1-2)Man(a1-6)]Man(b1-4)GlcNAc(b1-4)GlcNAc
Procedure, shortened: as §1

[29] = biological target: Fuc(a1-2)[GalNAc(a1-3)]Gal(b1-3)GlcNAc(b1-2)Man(a1-3)[Fuc(a1-2)[GalNAc(a1-3)]Gal(b1-3)GlcNAc(b1-2)Man(a1-6)]Man(b1-4)GlcNAc(b1-4)[Fuc(a1-6)]GlcNAc
Procedure, shortened: as §1

[30] = biological target: Fuc(a1-2)[GalNAc(a1-3)]Gal(b1-3)GlcNAc(b1-3)GalNAc
Procedure, shortened: as §1

[31] = biological target: Fuc(a1-2)[GalNAc(a1-3)]Gal(b1-3)GlcNAc(b1-6)GalNAc
Procedure, shortened: as §1

[32] = biological target: Fuc(a1-2)[GalNAc(a1-3)]Gal(b1-4)Glc
Procedure, shortened: as §1

[33] = biological target: Fuc(a1-2)[GalNAc(a1-3)]Gal(b1-4)GlcNAc
Procedure, shortened: as §1

[34] = biological target: Fuc(a1-2)[GalNAc(a1-3)]Gal(b1-4)GlcNAc(b1-2)Man
Procedure, shortened: as §1

[35] = biological target: Fuc(a1-2)[GalNAc(a1-3)]Gal(b1-4)GlcNAc(b1-2)Man(a1-3)[Fuc(a1-2)[GalNAc(a1-3)]Gal(b1-4)GlcNAc(b1-2)Man(a1-6)]Man(b1-4)GlcNAc(b1-4)GlcNAc
Procedure, shortened: as §1

[36] = biological target: Fuc(a1-2)[GalNAc(a1-3)]Gal(b1-4)GlcNAc(b1-2)Man(a1-3)[Fuc(a1-2)[GalNAc(a1-3)]Gal(b1-4)GlcNAc(b1-2)Man(a1-6)]Man(b1-4)GlcNAc(b1-4)[Fuc(a1-6)]GlcNAc
Procedure, shortened: as §1

[37] = biological target: Fuc(a1-2)[GalNAc(a1-3)]Gal(b1-4)GlcNAc(b1-3)Gal(b1-4)GlcNAc
Procedure, shortened: as §1

[38] = biological target: Fuc(a1-2)[GalNAc(a1-3)]Gal(b1-4)GlcNAc(b1-3)Gal(b1-4)GlcNAc(b1-3)Gal(b1-4)GlcNAc
Procedure, shortened: as §1

[39] = biological target: Fuc(a1-2)[GalNAc(a1-3)]Gal(b1-4)GlcNAc(b1-3)GalNAc
Procedure, shortened: as §1

[40] = biological target: Fuc(a1-2)[GalNAc(a1-3)]Gal(b1-4)GlcNAc(b1-3)[Fuc(a1-2)[GalNAc(a1-3)]Gal(b1-4)GlcNAc(b1-6)]GalNAc
Procedure, shortened: as §1

[41] = biological target: Fuc(a1-2)[GalNAc(a1-3)]Gal(b1-4)GlcNAc(b1-6)GalNAc
Procedure, shortened: as §1

[42] = biological target: Fuc(a1-2)[GalNAc(a1-3)]Gal(b1-4)[Fuc(a1-3)]GlcNAc
Procedure, shortened: as §1

[43] = biological target: Fuc(a1-2)[GalNAc(a1-3)]Gal(b1-4)[Fuc(a1-3)]GlcNAc(b1-3)GalNAc
Procedure, shortened: as §1

[44] = biological target: Fuc(a1-2)[GalNAc(a1-4)]Gal(b1-4)GlcNAc
Procedure, shortened: as §1

[45] = biological target: Fuc(a1-2)[GalNAc(b1-3)]Gal
Procedure, shortened: as §1

B1: Cohesin-hMARCO (Homo sapiens) (protein)
chain: LDDLDAVRIKVDTVNAKPGDTVRIPVRFSGIPSKGIANCDFVYSYDPNVLEIIEIEPGDIIVDPNPDKSFDTAVYPDRKIIVFLFAEDSGTGAYAITKDGVFATIVAKVKEGAPNGLSVIKFVEVGGFANNDLVEQKTQFFDGGANVGDTTEPATPTTPVTTPTTTDDLDAASVRIVGSSNRGRAEVYYSGTWGTICDDEWQNSDAIVFCRMLGYSKGRALYKVGAGTGQIWLDNVQCRGTESTLWSCTKNSWGHHDCSHEEDAGVECSVHHHHHH
glycan array binding signal (z-score) [1]: 0.012 | glycan array binding signal (z-score) [2]: -0.237 | glycan array binding signal (z-score) [3]: -0.072 | glycan array binding signal (z-score) [4]: -0.225 | glycan array binding signal (z-score) [5]: -0.378 | glycan array binding signal (z-score) [6]: -0.528 | glycan array binding signal (z-score) [7]: 2.72 | glycan array binding signal (z-score) [8]: -0.576 | glycan array binding signal (z-score) [9]: -0.466 | glycan array binding signal (z-score) [10]: -0.028 | glycan array binding signal (z-score) [11]: 0.474 | glycan array binding signal (z-score) [12]: 0.265 | glycan array binding signal (z-score) [13]: 0.089 | glycan array binding signal (z-score) [14]: -0.167 | glycan array binding signal (z-score) [15]: -0.358 | glycan array binding signal (z-score) [16]: 0.522 | glycan array binding signal (z-score) [17]: -0.45 | glycan array binding signal (z-score) [18]: -0.382 | glycan array binding signal (z-score) [19]: -0.528 | glycan array binding signal (z-score) [20]: -0.198 | glycan array binding signal (z-score) [21]: 0.015 | glycan array binding signal (z-score) [22]: -0.472 | glycan array binding signal (z-score) [23]: -0.286 | glycan array binding signal (z-score) [24]: 0.232 | glycan array binding signal (z-score) [25]: -0.358 | glycan array binding signal (z-score) [26]: -0.549 | glycan array binding signal (z-score) [27]: -0.317 | glycan array binding signal (z-score) [28]: -0.18 | glycan array binding signal (z-score) [29]: 0.063 | glycan array binding signal (z-score) [30]: -0.468 | glycan array binding signal (z-score) [31]: 0.928 | glycan array binding signal (z-score) [32]: -0.364 | glycan array binding signal (z-score) [33]: -0.218 | glycan array binding signal (z-score) [34]: 0.245 | glycan array binding signal (z-score) [35]: -0.299 | glycan array binding signal (z-score) [36]: -0.462 | glycan array binding signal (z-score) [37]: -0.551 | glycan array binding signal (z-score) [38]: -0.553 | glycan array binding signal (z-score) [39]: -0.155 | glycan array binding signal (z-score) [40]: -0.055 | glycan array binding signal (z-score) [41]: 2.17 | glycan array binding signal (z-score) [42]: -0.056 | glycan array binding signal (z-score) [43]: 0.005 | glycan array binding signal (z-score) [44]: 1.89 | glycan array binding signal (z-score) [45]: 2.53

Source: the supplement of paper PMC8728848
